# Experimental data taken from PubChem BioAssay AID1508642 (National Center for Advancing Translational Sciences (NCATS), 2021).
# Out of some 43,000 compounds screened, about 200 (0.47%) were called active. About 12% were inconclusive and are not listed. Calls come from the whole dose curve; as a rule, active = well fitted cell-killing curve with a large enough effect; inconclusive = small, poorly fitted or top-dose-only effect, or effect the other way; inactive = flat fitted curve, though single readings scatter. The list shows a part of the results.
# Experiment: Cell viability qHTS assay in S16 Pmp22-F2sN cells; note: nearly all actives have a fitted effect of over 65% in size
# Conditions: S16 Pmp22-F2sN Schwann cells viability, CellTiter-Glo, 24 h; series mostly up to 57.5 µM; activity change, negative = cytotoxicity: at the top concentration
# Procedure, shortened: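 Used to flag compounds lowering reporter output through toxicity, this quantitative HTS measures ATP-based CellTiter-Glo luminescence in S16 Pmp22-F2sN Schwann cells after 24 h compound exposure at 37C.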
# % is set by controls: 0 for no effect and ±100 for the full control effect.
row,SMILES,"activity change, negative = cytotoxicity"
1,COCCCNC(=O)N1[C@H](c2cccs2)[C@@H](C)C(=O)[C@@H](C)[C@@H]1c1cccs1,inactive: -10.4%
2,CCOc1ccc(CCNC(=O)c2cc3c(=O)oc4ccc(C)cc4c3s2)cc1OCC,inactive: 2.02%
3,CCOC(=O)c1ccc2c(c1)N(CC(=O)N(C)c1ccccc1)C(=O)c1ccccc1S2,inactive: 9.45%
4,COc1ccccc1NC(=O)c1cc(=O)c2ccc(C)c(C)c2o1,inactive: 17.6%
5,COc1ccc(-c2cn(-c3ccc(C)cc3)c(S(=O)(=O)CC(=O)Nc3ccc(F)cc3)n2)cc1,inactive: -25.6%
6,Cc1ccc(Cc2c(C)nc3nc(SCC(=O)NC4CCC(C)CC4)nn3c2C)cc1 (stereo not drawn),inactive: 9.49%
7,CC1CCCCN1C(=O)CSc1n[nH]c(-c2ccccc2Cl)n1 (stereo not drawn),inactive: -3.37%
8,O=C(CC1N=C2c3ccccc3N=C(SCc3cccc(Cl)c3)N2C1=O)NCc1ccc2c(c1)OCO2 (stereo not drawn),inactive: -15.5%
9,N#C/C(=C\c1ccc(-c2ccc(C(=O)O)cc2)o1)C(=O)Nc1ccccc1C(=O)O,inactive: 10%
10,Cc1nn(CCC(=O)Nc2cc(F)ccc2F)c(=O)c2nn(-c3ccccc3)c(C)c12,inactive: 0.689%
11,CCOc1ccccc1NC(=O)N1CC(CC)Oc2ccccc21 (stereo not drawn),inactive: 10.8%
12,Cc1ccc(C(=O)CSc2nc(-c3ccccc3)nc3c2CCCC3)cc1,inactive: 16.9%
13,CCOC(=O)CSc1nc(-c2ccc(C)cc2C)cc(-c2ccccc2)c1C#N,inactive: 5.24%
14,COc1cccc(CNCCNC(=O)c2nonc2N)c1,inactive: -2.27%
15,Cc1cccc(NS(=O)(=O)c2c(C)nc3sccn3c2=O)c1C,inactive: -0.216%
16,O=C(NCc1ccccc1Cl)c1cc2c(s1)-c1ccc(Cl)cc1SC2,inactive: 15.8%
17,CCSc1nc2c([nH]c3ccccc32)c(=O)n1CC,inactive: -4.95%
18,O=C(Cn1c(=O)nc(-c2ccccc2)c2ccccc21)Nc1cccc(C(F)(F)F)c1,inactive: 16.3%
19,Cc1c(C(=O)NCc2cccc(Cl)c2)sc2ncnc(N(C)C3CCCCC3)c12,inactive: -5.47%
20,CC(C)(C)C(=O)Nc1cccc(-c2cn3cccnc3n2)c1,inactive: 13.7%
21,COc1cccc(-n2c(=O)c3c(C)c(C)sc3n(CC(=O)NCc3ccc(C)cc3)c2=O)c1,inactive: 14.7%

row,SMILES,"activity change, negative = cytotoxicity"
1,Cc1cccc(CSc2ncc(Cl)c(C(=O)Nc3sc4c(c3C(N)=O)CCCC4)n2)c1,inactive: -5.17%
2,COc1ccccc1NC(=O)CSC1=Nc2ccccc2C2=NC(CC(=O)NCc3ccco3)C(=O)N12 (stereo not drawn),inactive: 3.09%
3,Cc1ccc(C(=O)Nc2cc3c(cc2C)n(C)c(=O)c(=O)n3C)cc1,inactive: 4.34%
4,CCOc1ccccc1CN1CCN(S(=O)(=O)c2ccccc2)CC1,inactive: -12.8%
5,Cc1ccccc1NC(=O)c1ccc2c(c1)c(C)c(C)n2Cc1ccccc1,inactive: -3.37%
6,CC(=O)c1cccc(NC(=O)c2oc3c(c2C)-c2nn(Cc4ccc(Cl)cc4)cc2CC3)c1,inactive: -3.71%
7,O=C(CN1N=C(c2ccc(Cl)cc2)CCC1=O)NCCc1ccc(Cl)cc1,inactive: -13.7%
8,COCc1nc2ccccc2n1CCOc1cccc(C)c1,inactive: 0.952%
9,COc1ccc(S(=O)(=O)N2CCCN(CC(=O)Nc3ccc(NC(C)=O)cc3)CC2)cc1,inactive: 4.63%
10,Cc1nc2c(C(=O)NCCCN(CC(C)C)CC(C)C)cnn2c(C)c1Cc1c(F)cccc1Cl,inactive: 0.415%
11,CCCOC(=O)c1c(NC(=O)c2nc3ncccn3n2)sc(C(N)=O)c1C,inactive: 23%
12,COc1ccc(OC)c(CNC(=O)c2ccc(Sc3ccc(C)cc3)c(N)c2)c1,inactive: -26.9%
13,CCc1ccc(-n2nc(C)c3c(C)cc(=O)n(Cc4nc(-c5ccccc5)oc4C)c32)cc1,inactive: 6.78%
14,COc1ccc(NC(=O)c2oc3ccc(S(=O)(=O)N4CCCCC4)cc3c2C)cc1,inactive: -16.1%
15,CCCc1nn2c(=O)cc(COC(=O)c3ccccc3NC(=O)COc3ccccc3F)nc2s1,inactive: 14.3%
16,Cc1ccccc1NC(=O)CSc1nc2nccnc2c(=O)n1CCc1c[nH]c2ccccc12,inactive: 5.88%
17,Cc1cc(C)cc(OCC(=O)Nc2c(C)ccc3nsnc23)c1,inactive: 15.1%
18,COc1ccc(S(=O)(=O)c2cnc3ccc(Cl)cc3c2N2CCCCC2C)cc1 (stereo not drawn),inactive: -12.7%
19,CCCCN(C)CCCNC(=O)Cn1ncc2c3ccccc3n(Cc3ccccc3)c2c1=O,inactive: 7.91%
20,Cc1cccc(NC(=O)CSc2nccn2Cc2ccc(F)cc2)c1C,inactive: 3.67%
21,CCOc1ccc(N(CC)S(=O)(=O)c2cc(Br)cc3c2N(C(C)=O)C(C)C3)cc1 (stereo not drawn),inactive: -7.47%

row,SMILES,"activity change, negative = cytotoxicity"
1,Cc1cccc(N2CCN(C(=O)Cn3nc(C)n4cccc4c3=O)CC2C)c1 (stereo not drawn),inactive: 4.61%
2,O=C(Cc1ccccc1)Nc1sc2c(c1C(=O)Nc1ccc(Br)cc1)CCC2,inactive: 9.23%
3,Cc1ccc2oc(C(=O)Nc3cccc(Cl)c3)cc(=O)c2c1,inactive: -2.43%
4,COc1ccccc1C(=O)Nc1ccccc1OCc1cc(=O)n2ccccc2n1,inactive: 12.5%
5,Cc1c(C(=O)Nc2nc(-c3ccc(F)cc3)ns2)oc2ccc(Cl)cc12,inactive: 0.0502%
6,Cc1ccc(CCNC(=O)CS(=O)Cc2nc(-c3ccccc3Cl)oc2C)cc1 (stereo not drawn),inactive: 2.52%
7,COc1cccc(N2CC(NC(=O)c3ccc(S(=O)(=O)N4CCOCC4)cc3)CC2=O)c1 (stereo not drawn),inactive: 4.93%
8,O=C(c1cnn(-c2ccc(F)cc2)c1-n1cccc1)N1CCN(c2ccc(F)cc2)CC1,inactive: -1.47%
9,CCNc1nc(NCc2ccc(F)cc2)c2cnn(C)c2n1,inactive: -28.8%
10,CC1=C(C(=O)Nc2cccc(Cl)c2C)C2(CCCCCC2)OC1=O,inactive: -11.4%
11,CC1CCN(S(=O)(=O)c2ccc3c(c2)CCN3)CC1,inactive: -1.34%
12,COc1ccccc1Nc1sc(C(=O)c2ccc(C)cc2C)c(N)c1S(=O)(=O)c1ccccc1,inactive: -0.378%
13,CCc1ccc(S(=O)(=O)c2nnn3c2nc(Nc2cc(OC)ccc2OC)c2sccc23)cc1,inactive: 1.89%
14,CCOc1ccc(NC(=O)c2ccc3[nH]c(C)c(C)c3c2)cc1,inactive: -0.0521%
15,O=C(Cn1c(SCc2ccccc2F)nc2ccncc21)Nc1ccccc1C(F)(F)F,inactive: 0.664%
16,O=C(Cn1c(=O)c2cccn2c2cccnc21)NCc1cccc(F)c1,inactive: -1.29%
17,Cc1ccc(S(=O)(=O)Nc2cccc(-c3cn4cccc(C)c4n3)c2)c(C)c1,inactive: 1.59%
18,CCOc1cc(C(=O)NCCc2sc(-c3ccc(F)cc3)nc2C)cc(OCC)c1OCC,inactive: 7.58%
19,CNC(=O)CCCN1C(=O)c2cccnc2Sc2ccccc21,inactive: 11.7%
20,Cc1nc2ccc(S(=O)(=O)N(CC(=O)Nc3ccc(F)cc3F)Cc3ccccc3)cc2s1,inactive: -1.12%
21,CCCCC(=O)OC1=C(C(=O)c2ccccc2)N(CCC)S(=O)(=O)c2ccccc21,inactive: -22.2%
